Experimental data taken from publication PMC4468608, “A distinct p53 target gene set predicts for response to the selective p53–HDM2 inhibitor NVP-CGM097” (eLife, 2015).
Further values from the same series stand in other lists.

Test system: cell lines from the Cancer Cell Line Encyclopedia (CCLE)
Assay: High-throughput cell viability assay, CCLE cell line panel (n = 356)
Type: cell-based, human
Method: Cell lines were partitioned into sensitive and insensitive groups based on compound potency (IC50). […] All other cell lines were obtained from ATCC (American Type Culture Collection), DSMZ (Deutsche Sammlung von Mikroorganismen und Zellkulturen), and HSRRB (Health Science Research Resources Bank) and cultured in RPMI or Dulbecco's modified Eagle's medium plus 10% FBS (Invitrogen, Carlsbad, CA) at 37°C, 5% CO2.

COc1cc2c(cc1OC(C)C)[C@H](c1ccc(Cl)cc1)N(c1ccc(N(C)C[C@H]3CC[C@H](N4CCNC(=O)C4)CC3)cc1)C(=O)C2 [NVP-CFC218]
Amax (8-MG-BA, TP53 MUT): -29.68% | sensitivity call (8-MG-BA, TP53 MUT): insensitive (Sensitivity call for each compound was applied according to a cut-off of 4 µM for IC50 and -50% for Amax) | Amax (769-P, TP53 WT): -72.79% | sensitivity call (769-P, TP53 WT): sensitive (Sensitivity call for each compound was applied according to a cut-off of 4 µM for IC50 and -50% for Amax) | Amax (786-O, TP53 MUT): -27.93% | sensitivity call (786-O, TP53 MUT): insensitive (Sensitivity call for each compound was applied according to a cut-off of 4 µM for IC50 and -50% for Amax) | Amax (5637, TP53 MUT): 0.50% | sensitivity call (5637, TP53 MUT): insensitive (Sensitivity call for each compound was applied according to a cut-off of 4 µM for IC50 and -50% for Amax) | Amax (A2780, TP53 WT): -77.43% | sensitivity call (A2780, TP53 WT): sensitive (Sensitivity call for each compound was applied according to a cut-off of 4 µM for IC50 and -50% for Amax) | Amax (A-204, TP53 WT): -58.99% | sensitivity call (A-204, TP53 WT): sensitive (Sensitivity call for each compound was applied according to a cut-off of 4 µM for IC50 and -50% for Amax) | Amax (A-375, TP53 WT): -70.39% | sensitivity call (A-375, TP53 WT): sensitive (Sensitivity call for each compound was applied according to a cut-off of 4 µM for IC50 and -50% for Amax) | Amax (ACHN, TP53 WT): -65.30% | sensitivity call (ACHN, TP53 WT): sensitive (Sensitivity call for each compound was applied according to a cut-off of 4 µM for IC50 and -50% for Amax) | Amax (AMO-1, TP53 WT): -96.94% | sensitivity call (AMO-1, TP53 WT): sensitive (Sensitivity call for each compound was applied according to a cut-off of 4 µM for IC50 and -50% for Amax) | Amax (AU565, TP53 MUT): -46.46% | sensitivity call (AU565, TP53 MUT): insensitive (Sensitivity call for each compound was applied according to a cut-off of 4 µM for IC50 and -50% for Amax) | Amax (AsPC-1, TP53 MUT): -30.80% | sensitivity call (AsPC-1, TP53 MUT): insensitive (Sensitivity call for each compound was applied according to a cut-off of 4 µM for IC50 and -50% for Amax) | Amax (BDCM, TP53 WT): -93.74% | sensitivity call (BDCM, TP53 WT): sensitive (Sensitivity call for each compound was applied according to a cut-off of 4 µM for IC50 and -50% for Amax) | Amax (BHY, TP53 MUT): 1.51% | sensitivity call (BHY, TP53 MUT): insensitive (Sensitivity call for each compound was applied according to a cut-off of 4 µM for IC50 and -50% for Amax) | Amax (BICR 6, TP53 MUT): -6.74% | sensitivity call (BICR 6, TP53 MUT): insensitive (Sensitivity call for each compound was applied according to a cut-off of 4 µM for IC50 and -50% for Amax) | Amax (BL-41, TP53 MUT): -3.11% | sensitivity call (BL-41, TP53 MUT): insensitive (Sensitivity call for each compound was applied according to a cut-off of 4 µM for IC50 and -50% for Amax) | Amax (BL-70, TP53 MUT): 5.30% | sensitivity call (BL-70, TP53 MUT): insensitive (Sensitivity call for each compound was applied according to a cut-off of 4 µM for IC50 and -50% for Amax) | Amax (BT-549, TP53 MUT): -22.89% | sensitivity call (BT-549, TP53 MUT): insensitive (Sensitivity call for each compound was applied according to a cut-off of 4 µM for IC50 and -50% for Amax) | Amax (BxPC-3, TP53 MUT): 2.85% | sensitivity call (BxPC-3, TP53 MUT): insensitive (Sensitivity call for each compound was applied according to a cut-off of 4 µM for IC50 and -50% for Amax) | Amax (CAS-1, TP53 MUT): -0.16% | sensitivity call (CAS-1, TP53 MUT): insensitive (Sensitivity call for each compound was applied according to a cut-off of 4 µM for IC50 and -50% for Amax) | Amax (CFPAC-1, TP53 MUT): -38.08% | sensitivity call (CFPAC-1, TP53 MUT): insensitive (Sensitivity call for each compound was applied according to a cut-off of 4 µM for IC50 and -50% for Amax) | Amax (CMK-11-5, TP53 MUT): -25.58% | sensitivity call (CMK-11-5, TP53 MUT): insensitive (Sensitivity call for each compound was applied according to a cut-off of 4 µM for IC50 and -50% for Amax) | Amax (COLO 741, TP53 MUT): 3.97% | sensitivity call (COLO 741, TP53 MUT): insensitive (Sensitivity call for each compound was applied according to a cut-off of 4 µM for IC50 and -50% for Amax) | Amax (COLO-679, TP53 WT): -66.48% | sensitivity call (COLO-679, TP53 WT): sensitive (Sensitivity call for each compound was applied according to a cut-off of 4 µM for IC50 and -50% for Amax) | Amax (COV318, TP53 MUT): 5.06% | sensitivity call (COV318, TP53 MUT): insensitive (Sensitivity call for each compound was applied according to a cut-off of 4 µM for IC50 and -50% for Amax) | Amax (COV362, TP53 MUT): -1.49% | sensitivity call (COV362, TP53 MUT): insensitive (Sensitivity call for each compound was applied according to a cut-off of 4 µM for IC50 and -50% for Amax) | Amax (COV434, TP53 WT): -61.47% | sensitivity call (COV434, TP53 WT): insensitive (Sensitivity call for each compound was applied according to a cut-off of 4 µM for IC50 and -50% for Amax) | Amax (COV644, TP53 WT): -2.94% | sensitivity call (COV644, TP53 WT): insensitive (Sensitivity call for each compound was applied according to a cut-off of 4 µM for IC50 and -50% for Amax) | Amax (Caki-2, TP53 WT): -64.31% | sensitivity call (Caki-2, TP53 WT): sensitive (Sensitivity call for each compound was applied according to a cut-off of 4 µM for IC50 and -50% for Amax) | Amax (Calu-3, TP53 MUT): -11.07% | sensitivity call (Calu-3, TP53 MUT): insensitive (Sensitivity call for each compound was applied according to a cut-off of 4 µM for IC50 and -50% for Amax) | Amax (Calu-6, TP53 MUT): -24.41% | sensitivity call (Calu-6, TP53 MUT): insensitive (Sensitivity call for each compound was applied according to a cut-off of 4 µM for IC50 and -50% for Amax) | Amax (Caov-3, TP53 MUT): -11.01% | sensitivity call (Caov-3, TP53 MUT): insensitive (Sensitivity call for each compound was applied according to a cut-off of 4 µM for IC50 and -50% for Amax) | Amax (DB, TP53 MUT): 12.10% | sensitivity call (DB, TP53 MUT): insensitive (Sensitivity call for each compound was applied according to a cut-off of 4 µM for IC50 and -50% for Amax) | Amax (DBTRG-05MG, TP53 WT): -63.69% | sensitivity call (DBTRG-05MG, TP53 WT): sensitive (Sensitivity call for each compound was applied according to a cut-off of 4 µM for IC50 and -50% for Amax) | Amax (DEL, TP53 MUT): -20.11% | sensitivity call (DEL, TP53 MUT): insensitive (Sensitivity call for each compound was applied according to a cut-off of 4 µM for IC50 and -50% for Amax) | Amax (DK-MG, TP53 WT): -68.71% | sensitivity call (DK-MG, TP53 WT): sensitive (Sensitivity call for each compound was applied according to a cut-off of 4 µM for IC50 and -50% for Amax) | Amax (DMS 114, TP53 MUT): 0.74% | sensitivity call (DMS 114, TP53 MUT): insensitive (Sensitivity call for each compound was applied according to a cut-off of 4 µM for IC50 and -50% for Amax) | Amax (DOHH-2, TP53 WT): -93.70% | sensitivity call (DOHH-2, TP53 WT): sensitive (Sensitivity call for each compound was applied according to a cut-off of 4 µM for IC50 and -50% for Amax) | Amax (Detroit 562, TP53 MUT): -3.06% | sensitivity call (Detroit 562, TP53 MUT): insensitive (Sensitivity call for each compound was applied according to a cut-off of 4 µM for IC50 and -50% for Amax) | Amax (EBC-1, TP53 MUT): -0.69% | sensitivity call (EBC-1, TP53 MUT): insensitive (Sensitivity call for each compound was applied according to a cut-off of 4 µM for IC50 and -50% for Amax) | Amax (EFM-19, TP53 MUT): -9.07% | sensitivity call (EFM-19, TP53 MUT): insensitive (Sensitivity call for each compound was applied according to a cut-off of 4 µM for IC50 and -50% for Amax) | Amax (EM-2, TP53 MUT): -7.05% | sensitivity call (EM-2, TP53 MUT): insensitive (Sensitivity call for each compound was applied according to a cut-off of 4 µM for IC50 and -50% for Amax) | Amax (FU97, TP53 MUT): -1.04% | sensitivity call (FU97, TP53 MUT): insensitive (Sensitivity call for each compound was applied according to a cut-off of 4 µM for IC50 and -50% for Amax) | Amax (G-361, TP53 WT): -62.79% | sensitivity call (G-361, TP53 WT): sensitive (Sensitivity call for each compound was applied according to a cut-off of 4 µM for IC50 and -50% for Amax) | Amax (G-402, TP53 WT): -80.69% | sensitivity call (G-402, TP53 WT): sensitive (Sensitivity call for each compound was applied according to a cut-off of 4 µM for IC50 and -50% for Amax) | Amax (GCIY, TP53 MUT): -4.41% | sensitivity call (GCIY, TP53 MUT): insensitive (Sensitivity call for each compound was applied according to a cut-off of 4 µM for IC50 and -50% for Amax) | Amax (GP2d, TP53 WT): -61.10% | sensitivity call (GP2d, TP53 WT): sensitive (Sensitivity call for each compound was applied according to a cut-off of 4 µM for IC50 and -50% for Amax) | Amax (GRANTA-519, TP53 WT): -70.32% | sensitivity call (GRANTA-519, TP53 WT): sensitive (Sensitivity call for each compound was applied according to a cut-off of 4 µM for IC50 and -50% for Amax) | Amax (H4, TP53 WT): -65.09% | sensitivity call (H4, TP53 WT): sensitive (Sensitivity call for each compound was applied according to a cut-off of 4 µM for IC50 and -50% for Amax) | Amax (HARA, TP53 MUT): -1.75% | sensitivity call (HARA, TP53 MUT): insensitive (Sensitivity call for each compound was applied according to a cut-off of 4 µM for IC50 and -50% for Amax) | Amax (HCC70, TP53 MUT): -10.79%
